{
  "source": "PubChem BioAssay AID1030",
  "about": "(National Center for Advancing Translational Sciences (NCATS), 2008)",
  "note": "The campaign covered roughly 220,000 compounds. About 16,000 (7.3%) were called active. Inconclusive means that the source gave no clear call. Such entries were picked first, then a sample of the others. Calls come from the whole dose curve; as a rule, active = well fitted inhibition curve with a large enough effect (not every such curve was filed as active); inconclusive = small, poorly fitted or top-dose-only effect, or another doubt; inactive = no such curve, though single readings can be large or run the other way. Potencies of inconclusive entries are left out as doubtful fits. Potency is the fitted concentration of half-maximal effect; tags give direction and shape of the fitted curve.",
  "data": [
    {"molecular_target": "Aldehyde dehydrogenase 1A1 (Homo sapiens) (UniProt P00352)", "sequence (P00352 whole entry, looked up)": "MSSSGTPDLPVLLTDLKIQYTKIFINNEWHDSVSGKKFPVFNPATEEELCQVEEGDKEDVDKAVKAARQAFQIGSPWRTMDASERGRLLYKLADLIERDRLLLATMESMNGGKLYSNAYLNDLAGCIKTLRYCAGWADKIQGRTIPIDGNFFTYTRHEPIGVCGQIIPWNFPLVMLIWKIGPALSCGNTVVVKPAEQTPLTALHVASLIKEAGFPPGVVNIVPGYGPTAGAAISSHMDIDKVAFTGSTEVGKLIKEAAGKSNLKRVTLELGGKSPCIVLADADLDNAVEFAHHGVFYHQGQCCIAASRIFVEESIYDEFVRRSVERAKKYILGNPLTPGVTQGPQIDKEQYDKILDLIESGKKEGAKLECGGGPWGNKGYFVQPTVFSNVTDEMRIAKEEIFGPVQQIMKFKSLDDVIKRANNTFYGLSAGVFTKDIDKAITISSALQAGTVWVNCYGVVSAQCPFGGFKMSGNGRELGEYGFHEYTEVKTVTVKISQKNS", "assay": "qHTS Assay for Inhibitors of Aldehyde Dehydrogenase 1 (ALDH1A1);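 for activity, negative = inhibition: plate controls were no enzyme wells and a reference inhibitor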", "conditions": "Purified ALDH1A1, NADH fluorescence, propionaldehyde substrate; series mostly up to 75.3 µM; activity, negative = inhibition: at the top concentration", "values": [
      {"compound": "O=Cc1cn(-c2ccccc2)nc1-c1cc2ccccc2oc1=O", "Potency": "inconclusive [inhibitor, partial curve]"},
      {"compound": "S=C(NCc1ccco1)N1CCN(C/C=C/c2ccccc2)CC1", "Potency": "inconclusive [inhibitor, single point]"},
      {"compound": "COc1ccc2nc(SCc3ccccc3)nc(C)c2c1", "Potency": "inconclusive [inhibitor, partial curve]"},
      {"compound": "O=C(CSc1nc2cc(S(=O)(=O)N3CCOCC3)ccc2o1)NC1CCCc2ccccc21", "note": "(stereo not given)", "Potency": "active: 2.24 µM"},
      {"compound": "CCN(CC)CCCn1c(=S)[nH]c2cc(C(=O)OC)ccc2c1=O", "Potency": "inconclusive [inhibitor, single point]"},
      {"compound": "CN(Cc1ccon1)C(=O)CCc1nnc(Cc2ccc(-c3ccccc3)cc2)o1", "Potency": "inconclusive [inhibitor, single point]"},
      {"compound": "Cc1ccc(/C=N\\NC(=O)C2COc3cc4ccccc4cc3O2)o1", "note": "(stereo not given)", "Potency": "inconclusive [inhibitor, partial curve, poor fit]"},
      {"compound": "Cc1ccc(S(=O)(=O)Nc2ccc(N(C)C)cc2)cc1", "Potency": "inconclusive [inhibitor, single point]"},
      {"compound": "COC(=O)CCC(=O)OC1(C)C(=O)C=C2C=C(C3CC3)N(CCc3c[nH]c4ccccc34)C=C2C1=O", "note": "(stereo not given)", "activity, negative = inhibition": "inactive: 8.07% [at 13.5 µM]"},
      {"compound": "CCN(CC)S(=O)(=O)c1cccc(C(=O)N[C@H](C(=O)NCc2ccc(Cl)cc2)C(C)C)c1", "activity, negative = inhibition": "inactive: -1.66%"},
      {"compound": "FC(F)(F)c1ccc(-c2noc(CN3CCCN(C4CCCCC4)CC3)n2)cc1", "activity, negative = inhibition": "inactive: 5.83%"},
      {"compound": "CCCCC(CC)CN=C(N)NC(N)=NCCCCCCN=C(N)NC(N)=NCC(CC)CCCC", "note": "(stereo not given)", "activity, negative = inhibition": "inactive: -1.56%"},
      {"compound": "CS(=O)(=O)N(CC(=O)Nc1ccc(S(=O)(=O)N2CCOCC2)cc1)c1ccccc1Br", "activity, negative = inhibition": "inactive: -4.8%"},
      {"compound": "O=C(/C=C/c1cccs1)Nc1ccc([N+](=O)[O-])cc1", "Potency": "inconclusive [inhibitor, single point]"},
      {"compound": "CC(=O)c1cccc(CN2CCCC(CCC(=O)NCc3ccccc3F)C2)c1", "note": "(stereo not given)", "activity, negative = inhibition": "inactive: -6.34%"},
      {"compound": "CCC(c1nnnn1C1CCCC1)N(Cc1cccs1)Cc1cc2cccc(C)c2[nH]c1=O", "note": "(stereo not given)", "Potency": "inconclusive [inhibitor, single point]"},
      {"compound": "O=C(Nc1ccc(Cc2ccncc2)cc1)C1CC1", "activity, negative = inhibition": "inactive: -0.438%"},
      {"compound": "N#Cc1ccsc1NC(=O)CN1CCN(S(=O)(=O)c2cc(Cl)ccc2Cl)CC1", "Potency": "inconclusive [inhibitor, partial curve]"},
      {"compound": "COc1ccc(/C=C/C=C2\\N=C(SC)SC2=O)cc1", "Potency": "inconclusive [inhibitor, partial curve]"},
      {"compound": "Cc1cc(-c2csc(N)n2)c(C)n1Cc1ccccc1", "Potency": "inconclusive [inhibitor, full curve]"},
      {"compound": "Nn1c(SCC(=O)Nc2ccc3c(c2)OCO3)nnc1C1CCCCC1", "activity, negative = inhibition": "inactive: -5.05%"},
      {"compound": "O=C(CNc1ccc(Cl)cc1)c1ccc(Br)cc1", "Potency": "active: 10 µM"},
      {"compound": "COc1cc(CNc2cc(C)ccc2C)cc(OC)c1OC", "Potency": "inconclusive [inhibitor, single point]"},
      {"compound": "CC(C)Nc1oc(Cc2cccc3ccccc23)nc1C#N", "Potency": "inconclusive [inhibitor, single point]"},
      {"compound": "Cc1cc(Cl)n2ncc(-c3ccccc3)c2n1", "Potency": "inconclusive [inhibitor, single point]"},
      {"compound": "O=C(COC(=O)c1ccc([N+](=O)[O-])s1)NCc1ccccc1", "Potency": "inconclusive [inhibitor, single point]"},
      {"compound": "O=C1/C(=C\\c2ccc3c(c2)OCO3)CCC/C1=C/c1ccc2c(c1)OCO2", "Potency": "inconclusive [inhibitor, partial curve]"},
      {"compound": "COc1ccccc1NC(=O)C1=C(C)NC(=O)NC1c1cccs1", "note": "(stereo not given)", "activity, negative = inhibition": "inactive: -10.2%"},
      {"compound": "O=C(O)c1cc(-c2ccccc2)on1", "Potency": "inconclusive [inhibitor, full curve]"},
      {"compound": "CCCc1nnc(NC(=O)c2cc(OC)cc(OC)c2)s1", "Potency": "inconclusive [inhibitor, single point]"},
      {"compound": "COc1ccc(C2Nc3ccccc3C(=O)N2c2ccccc2)cc1COc1ccccn1", "note": "(stereo not given)", "Potency": "inconclusive [inhibitor, partial curve]"},
      {"compound": "C/C(=N\\NC(=S)Nc1cc(S(=O)(=O)N2CCOCC2)ccc1Cl)c1ccc(N2CCOCC2)cc1", "Potency": "inconclusive [inhibitor, partial curve]"},
      {"compound": "c1ccc(-c2nnc(-c3ccccn3)nc2NC2CCCCC2)cc1", "activity, negative = inhibition": "inactive: 3.97%"},
      {"compound": "O=C(CN1CCN(S(=O)(=O)c2ccc(Br)cc2)CC1)N/N=C/c1cc([N+](=O)[O-])ccc1Cl", "Potency": "inconclusive [inhibitor, single point]"},
      {"compound": "Cc1[nH]c2ccccc2c1/C=N/Nc1ccccc1[N+](=O)[O-]", "activity, negative = inhibition": "inactive: -10.1%"},
      {"compound": "O=C1NCCN(Cc2cccc(Oc3ccccc3)c2)C1CC(=O)N1CCCCO1", "note": "(stereo not given)", "Potency": "inconclusive [inhibitor, single point]"},
      {"compound": "COc1ccc(NS(=O)(=O)c2ccc(C)c(NC(=O)c3ccc(C)c(S(=O)(=O)N4CCOCC4)c3)c2)cc1", "activity, negative = inhibition": "inactive: 11%"},
      {"compound": "CC(=O)c1cccc(N(CC(=O)NCC2CCCO2)C(=O)CCC(=O)Nc2cc(C)on2)c1", "note": "(stereo not given)", "activity, negative = inhibition": "inactive: -9.07%"},
      {"compound": "CC(C)(C)c1ccc(OCC(=O)Nc2ccc(-c3nc4cccnc4o3)cc2)cc1", "Potency": "inconclusive [inhibitor, full curve]"},
      {"compound": "Cc1onc(-c2ccccc2)c1-c1nc2cc(Cl)ccc2c(=O)o1", "Potency": "inconclusive [inhibitor, partial curve]"},
      {"compound": "COc1cc2c(cc1OC)CN(C(=O)c1ccc(S(=O)(=O)N3CCCCC3)cc1)CC2", "Potency": "inconclusive [inhibitor, single point]"},
      {"compound": "O=C(NCC1CCCO1)c1sc2cc(Cl)ccc2c1Cl", "note": "(stereo not given)", "Potency": "inconclusive [inhibitor, single point]"},
      {"compound": "CCN1CNC(=S)N(Cc2ccccc2)C1", "Potency": "inconclusive [inhibitor, single point]"},
      {"compound": "N#Cc1c(NC(=O)c2ccc(Cn3cc(Br)cn3)o2)sc2c1CCCCC2", "Potency": "inconclusive [inhibitor, partial curve]"},
      {"compound": "Cc1nonc1OCCCNc1ccc([N+](=O)[O-])cc1Cl", "Potency": "inconclusive [inhibitor, partial curve]"}
    ]}
  ]
}
